Hit rate of the full screen: of about 110,000 compounds, about 230 (0.21%) showed an effect of 50% or more. The list shows a part of the results.
Molecular target: DPAP1 (Plasmodium falciparum, UniProt Q8IIJ9)
Test: primary screen, percent inhibition; read by cleavage of a fluorogenic dipeptide substrate; higher = more effect of the substance
Design: species or system P. falciparum D10 trophozoite lysates; single well
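Further: 30 min substrate incubation versus DMSO and 10 µM JCP410 controls.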

DPAP1, sequence (Q8IIJ9 whole entry, looked up): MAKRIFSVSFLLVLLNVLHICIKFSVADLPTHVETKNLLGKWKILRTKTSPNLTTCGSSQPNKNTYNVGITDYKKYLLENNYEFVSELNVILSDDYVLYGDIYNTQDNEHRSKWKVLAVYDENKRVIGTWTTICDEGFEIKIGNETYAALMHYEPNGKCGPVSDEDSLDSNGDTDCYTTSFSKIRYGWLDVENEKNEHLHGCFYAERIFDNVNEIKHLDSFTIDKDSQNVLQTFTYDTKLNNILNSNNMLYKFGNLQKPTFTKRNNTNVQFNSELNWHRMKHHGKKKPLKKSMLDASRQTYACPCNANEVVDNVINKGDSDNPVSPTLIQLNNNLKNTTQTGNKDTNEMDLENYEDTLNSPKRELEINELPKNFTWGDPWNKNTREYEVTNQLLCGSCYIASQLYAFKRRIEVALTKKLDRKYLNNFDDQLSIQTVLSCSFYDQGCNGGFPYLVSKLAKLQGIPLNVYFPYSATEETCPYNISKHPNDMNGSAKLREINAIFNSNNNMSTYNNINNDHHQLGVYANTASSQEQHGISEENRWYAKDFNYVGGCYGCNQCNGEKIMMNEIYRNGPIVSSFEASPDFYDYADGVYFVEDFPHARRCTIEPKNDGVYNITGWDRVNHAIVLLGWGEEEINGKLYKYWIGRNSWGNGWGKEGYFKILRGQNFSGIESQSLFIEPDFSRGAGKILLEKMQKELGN

Row | Compound | % Inhibition @ 10 uM
1 | Cc1ccc2oc(=O)c3cc(C(=O)NC4CCCCC4)sc3c2c1 | -1.54%
2 | COc1ccc(CNC(=O)c2ccc(C)cc2)cc1 | -3.44%
3 | Cc1ccc(S(=O)(=O)C2C(=O)NC3(C)CC2c2cc(Cl)ccc2O3)cc1 (centres unmarked) | -2.45%
4 | CCN(CC)CCCNC(=O)c1cc2c(s1)CSC2 | -1.3%
5 | CCc1nn(CC(=O)NC2CCC(C)CC2)c(=O)c2cc3sccc3n12 (centres unmarked) | 1.8%
6 | Fc1ccc(N2CCN(C/C=C/c3ccccc3)CC2)cc1 | 0.472%
7 | CC(C)CCNC(=O)Cn1c(NCCC(C)C)nc2c1c(=O)n(C)c(=O)n2C | -4.85%
8 | COc1ccc(/C=C2/SC(=O)N(CN(C)C)C2=O)cc1 | 0.35%
9 | O=S(=O)(c1ccc(Cl)cc1)c1ccc(C(F)(F)F)cn1 | -8.12%
10 | COc1ccc(/C=C2\CCc3ccccc3C2=O)c(OC)c1 | 4.79%
11 | OCCOCCN1CCN(C2CCC(c3ccccc3)CC2)CC1 (centres unmarked) | -1.81%
12 | Cc1cc(C)c(S(=O)(=O)N(C)c2ccccc2)c(C)c1 | 1.83%
13 | CCn1ncc(C2=NOC(C(=O)NCC34CC5CC(CC(C5)C3)C4)C2)c1C (centres unmarked) | -3.08%
14 | CC1CCCCC1N1C(=O)c2ccccc2C1C(=O)NC1CCCCC1 (centres unmarked) | 2.79%
15 | CN(Cc1ccccc1)C(=O)Nc1cn(C)c(=O)c2ccccc12 | 10.5%
16 | COc1ccc(C(=O)n2nc(-c3ccco3)nc2SCc2ccccc2)cc1OC | 4.08%
17 | O=C(O)c1c(CNCCCc2ccccc2)c2ccccc2n1Cc1cccc(Cl)c1 | -1.44%
18 | CCN(Cc1ccccc1)C(=O)c1cc2cc3cc(OC)ccc3nc2s1 | 50.3%
19 | Cc1cccc(-c2noc(CCCC(=O)N3CCN(C)CC3)n2)c1 | 0.558%
20 | COc1ccc(NC(=O)COc2ccc3c(=O)c(Oc4ccccc4C(C)C)coc3c2)cc1 | 1.05%
21 | CCCCN(C)C1CC(=O)N(c2ccccc2)C1=O (centres unmarked) | 0.751%
22 | CNS(=O)(=O)c1ccc(NC(=O)Nc2cccc(C)c2)cc1 | -1.28%
23 | Cc1ccnc(NC(=O)Cc2c(F)cccc2Cl)c1 | 1.39%
24 | O=C(NCc1ccco1)C1CCCN(c2ncnc3c2nc2n3CCCCC2)C1 (centres unmarked) | 1.4%
25 | Cc1ccc(S(=O)(=O)Nc2cccc(-c3cn4cccnc4n3)c2)cc1 | 1.83%
26 | COc1ccccc1CNC(=O)c1oc2c(c1C)-c1n[nH]cc1CC2 | 5.42%

Row | Compound | % Inhibition @ 10 uM
27 | Cn1c2ccccc2n2c(SCCOc3ccc(Cl)cc3)nnc12 | -9.34%
28 | CC(C)C[C@H](NC(=O)OCc1ccccc1)C(=O)NC(C#N)/C=C/c1ccco1 (some centres unmarked) | -1.41%
29 | N#Cc1ccccc1N1C(=O)C2C3C=CC(CC3)C2C1=O (centres unmarked) | -0.759%
30 | S=C1NC2(CCCCC2)N=C1c1ccc(Cl)cc1 | 3.5%
31 | CCOC(=O)c1c(-c2ccccc2)csc1NC(=O)c1cc(-c2ccco2)on1 | -0.591%
32 | COc1ccc2cc(Br)ccc2c1CC(=O)NCCCN1CCOCC1 | -1.98%
33 | Cc1occc1-c1nnc2sc(/C=C/c3ccc(C(C)C)cc3)nn12 | -4.91%
34 | COc1cccc(-c2nnc3n2N=C(c2ccc(Br)cc2)CS3)c1 | 3.05%
35 | c1ccc2c(CN3CCc4c([nH]c5ccccc45)C3)c[nH]c2c1 | -2.81%
36 | Cc1cc(C)c(NC(=O)CN2CCCCCC2)c(C)c1 | -0.0369%
37 | CC1=C(C#N)C(c2ccc(N(C)C)cc2)C2=C(O)CC(c3ccc(Cl)cc3)CC2=N1 (centres unmarked) | -3.77%
38 | CCC(C)(C)C1CCc2c(sc(NC(=O)CC(C)C)c2C(N)=O)C1 (centres unmarked) | 2.42%
39 | COc1ccc(CCNC(=O)COc2cc(C)c(Cl)c(C)c2)cc1OC | 4.08%
40 | CC12C=CC(O1)C1C(=O)N(c3ccccc3Cl)C(=O)C12 (centres unmarked) | 3.87%
41 | COc1cc(C2c3c(oc4ccc(F)cc4c3=O)C(=O)N2c2nccs2)ccc1O (centres unmarked) | 2.1%
42 | COc1cccc(CN2CCN(Cc3ccco3)CC2)c1 | -13.6%
43 | COc1ccc(NC(=O)CN(c2ccc(OC)c(Cl)c2)S(C)(=O)=O)cc1 | 1.89%
44 | COc1ccc(-c2[nH]nc3c2C(c2cccnc2)N(C)C3=O)cc1 (centres unmarked) | -2.84%
45 | CCOC(=O)c1conc1-c1cccc(O)c1 | -0.233%
46 | COc1cc(C(=O)Nc2cc(C)cc(C)n2)cc(OC)c1OC | -8.42%
47 | CCN(CC)c1ccc(CN2CCN(c3ccccn3)CC2)cc1 | 3.68%
48 | O=c1cccc2n1C[C@H]1C[C@@H]2CN(Cc2ccc(-c3ccccc3)cc2)C1 | 1%
49 | COc1cc(/N=C/C2=C(O)CC(C)(C)CC2=O)c(OC)cc1Cl | 3.92%
50 | COc1nc(N)c(C#N)c(-c2ccccc2)c1-c1ccccc1 | -10.2%
51 | Cc1ccc(S(=O)(=O)N2CCc3ccccc32)cc1S(=O)(=O)N1CCc2ccccc21 | -0.992%
52 | N#C/C(=C/C=C/c1ccccc1)c1nc(-c2ccc([N+](=O)[O-])cc2)cs1 | -6.27%

Row | Compound | % Inhibition @ 10 uM
53 | CCCCn1c(=N)n(CC(O)COc2ccccc2)c2ccccc21 (centres unmarked) | 0.431%
54 | O=C1OC(c2ccccc2F)=N/C1=C\c1cccc(C(F)(F)F)c1 | -3.52%
55 | CC1=C(C(=O)OC2CCCCC2)C(c2cccc(Br)c2)NC(=O)N1 (centres unmarked) | 1.83%
56 | O=C(NC1(C(F)(F)F)NC(=O)N(c2ccc(F)cc2)C1=O)C1CCCCC1 (centres unmarked) | -3.34%
57 | COc1cc(OC)c2c(C)c(CC(=O)N3CCOCC3)c(=O)oc2c1 | -1.02%
58 | Cc1cccc(NS(=O)(=O)c2ccc(/N=C/c3c(O)nc(O)c(C#N)c3C)cc2)c1 | 0.983%
59 | CC(C)C(=O)N1N=C(c2ccccc2)NC(=O)C1c1c[nH]c2ccccc12 (centres unmarked) | 15.9%
60 | O=C(CN1C(=O)CSC1=O)N1CCc2ccccc2C1 | 2.57%
61 | CCOC(=O)c1c(C)n(C)c2ccc(O)cc12 | -4.77%
62 | CCCOc1ccc2oc(-c3ccc(OC)cc3)cc(=O)c2c1 | -7.56%
63 | O=C(NCCC1=CCCCC1)Nc1noc2c1COc1ccccc1-2 | 1.69%
64 | Cc1cc(-c2cccs2)c2c(N)c(C(=O)c3ccccc3)sc2n1 | 4.67%
65 | CCn1cc(/C=C2/NC(=O)N(Cc3ccc(C)cc3)C2=O)c2ccccc21 | 2.44%
66 | CCN(CC)Cc1cc(NC(C)=O)ccc1O | 1.7%
67 | CCOCCCN1C(=O)c2[nH]nc(-c3ccccc3O)c2C1c1ccc(C(=O)OC)cc1 (centres unmarked) | -3.49%
68 | Cc1ccc(CCNC(=O)C2CCC(=O)N2C2CCCCC2)cc1 (centres unmarked) | -5.07%
69 | CCCC(=O)Nc1ccc(C(=O)N2CCN(c3cccc(C(F)(F)F)c3)CC2)cc1 | 1.83%
70 | Cc1ccsc1C1C(C#N)=C(N)SC(N)=C1C#N | 27.5%
71 | CC(NC(=O)Cc1cccs1)c1ccc(O)cc1 (centres unmarked) | 4.19%
72 | CCCOc1ccc(C(=O)C2=C(O)C(=O)N(c3ccccn3)C2c2ccccc2F)cc1C (centres unmarked) | 1.52%
73 | O=C(NC1CCCC1)c1sc2ccccc2c1Cl | -0.941%
74 | O=C(c1ccc(Cn2cc(Br)cn2)o1)N1N=C(C(F)F)CC1(O)C(F)F (centres unmarked) | -3.71%
75 | O=[N+]([O-])c1ccc(CN2CCN(c3ccccc3)CC2)cc1 | -3.56%
76 | CC(C)Cn1cc(NC(=O)NC2CCCCC2)c2ccccc2c1=O | -3.29%
77 | CCC(=O)Nc1nonc1-c1nc2ccccc2n1Cc1cc2c(cc1Br)OCO2 | 2.25%
78 | COc1ccc(-c2nc3cc(Cl)ccc3[nH]2)cc1OC | -4.39%

Row | Compound | % Inhibition @ 10 uM
79 | CCOc1ccc(NC(=O)c2cccc(Br)c2)cc1 | -5.41%
80 | Cc1noc(/C=C/N(C)C)c1S(=O)(=O)N1CCCC(C(=O)NCc2ccccc2Cl)C1 (centres unmarked) | -8.42%
81 | CCO/C(O)=C1/C(C)=Nc2ncnn2C1c1ccc(OC(F)F)cc1 (centres unmarked) | -3.37%
82 | Cc1ccc(C(=O)N(Cc2ccc(Cl)cc2)Cc2ccco2)cc1 | 1.25%
83 | CCOC(=O)c1cn(-c2ccccc2)nc1-c1ccc(OC)c(OC)c1 | 2.38%
84 | CCOc1cccc(-c2cc(C(=O)Nc3sc(C)cc3C(=O)OC)c3ccccc3n2)c1 | -3.02%
85 | CN(C)CCNC(=O)C1CCCN(c2ncnc3c2nc2n3CCCCC2)C1 (centres unmarked) | 2.59%
86 | CCN1CCN(C(CNC(=O)C(=O)NCCCc2ccccc2)c2cccnc2)CC1 (centres unmarked) | -7.29%
87 | c1cncc(CNc2c3ccccc3nc3ccccc23)c1 | 1.58%
88 | Nc1n[nH]c(SCC(=O)c2ccc(Cl)cc2)n1 | 1.27%
89 | Cc1ccc(-c2ccccc2)nc1C | -2.28%
90 | CC(NC(=O)CCc1ccc(-n2cnc3cccnc32)cc1)c1ccccc1 (centres unmarked) | 5.87%
91 | Cc1ccc(Cn2c(=N)c(S(=O)(=O)c3ccc(C)cc3)cc3c(=O)n4ccccc4nc32)cc1 | -0.446%
92 | CCOCCCNC(=O)Nc1cn(C)c(=O)c2ccccc12 | 6.64%
93 | c1cc(-c2nnc(-c3ccncc3)o2)ccn1 | -4.08%
94 | Cc1ccc(OCCn2ccnc2)c(Cl)c1 | 2.22%
95 | c1ccc2oc(-c3nn4c(Cn5nnc6ccccc65)nnc4s3)cc2c1 | 7.31%
96 | OC(CN1CCC2(CC1)OCCO2)c1ccc2cc[nH]c2c1 (centres unmarked) | 5.53%
97 | COC(=O)c1cc2oc3ccccc3c2n1CC(=O)NCCC1=CCCCC1 | -3.34%
98 | COc1ccc(-n2cnc3cc(NC(C)=O)ccc32)cc1 | 3.65%
99 | CCN(CC)S(=O)(=O)c1ccc2oc(C(=O)NCCc3ccc(OC)c(OC)c3)c(C)c2c1 | -1.07%
100 | CC(=O)N(CN1C(=O)c2cc(Cl)c(Cl)cc2C1=O)c1ccccc1C | -1.96%
101 | COc1ccc(/C=N/N=C(\N)c2nonc2N)cc1OC | 2.24%
